The text below walks through data of the supplement of paper PMC8728848.

This is one part of the list.

Holding throughout (assay): glycan array binding signal (z-score within array); higher = stronger binding
What all share (conditions): glycan notation: IUPAC condensed, linker removed

Test [1] concerns the target Neu5Ac(a2-8)Neu5Ac(a2-8)Neu5Ac. The method in brief: (§1)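 Negative Z-scores can be read as non-binding. The Z-score is calculated within each array and then averaged across arrays of one protein sequence at different concentrations or buffers and across linkers. Arrays, 3228 in all, were curated from the Consortium for Functional Glycomics database and kept only where the protein sequence was available.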

In test [2] the target is Neu5Ac(a2-8)Neu5Ac(a2-8)Neu5Ac(a2-3)Gal(b1-4)Glc. The gist of the method: as §1
In test [3] the target is Neu5Ac(a2-8)Neu5Ac(a2-8)Neu5Ac(a2-3)[Gal(b1-3)GalNAc(b1-4)]Gal(b1-4)Glc. The method in brief: as §1
For test [4], the target named is Neu5Ac(a2-8)Neu5Ac(a2-8)Neu5Ac(a2-3)[GalNAc(b1-4)]Gal(b1-4)Glc. The method in brief: as §1
Test [5] has as its target Neu5Ac(a2-8)Neu5Ac(a2-8)Neu5Ac(a2-8)Neu5Ac(a2-3)[GalNAc(b1-4)]Gal(b1-4)Glc. The method in brief: as §1
The target in test [6] is Neu5Ac(a2-8)Neu5Gc(a2-3)Gal(b1-4)GlcNAc. The method in brief:
as §1

Test [7] addresses Neu5Ac(b2-6)Gal(b1-4)GlcNAc. The gist of the method: as §1
Test [8] deals with Neu5Ac(b2-6)GalNAc. The method in brief:
as §1

In test [9] the target is Neu5Ac9Ac(a2-3)Gal(b1-3)GlcNAc. The gist of the method: as §1
Test [10] has as its target Neu5Ac9Ac(a2-3)Gal(b1-4)GlcNAc. The gist of the method: as §1
Test [11] deals with Neu5Ac9Ac(a2-6)Gal(b1-4)GlcNAc. The method in brief: as §1
Test [12] addresses Neu5Gc(a2-3)Gal(b1-3)GlcNAc. The method in brief:
as §1

The target of test [13] is Neu5Gc(a2-3)Gal(b1-3)[Fuc(a1-4)]GlcNAc. The gist of the method:
as §1

Test [14] has as its target Neu5Gc(a2-3)Gal(b1-4)Glc. The method in brief:
as §1

For test [15], the target named is Neu5Gc(a2-3)Gal(b1-4)GlcNAc. The gist of the method:
as §1

For test [16], the target named is Neu5Gc(a2-3)Gal(b1-4)GlcNAc(b1-3)Gal(b1-4)GlcNAc(b1-2)Man(a1-3)[Neu5Gc(a2-3)Gal(b1-4)GlcNAc(b1-3)Gal(b1-4)GlcNAc(b1-2)Man(a1-6)]Man(b1-4)GlcNAc(b1-4)GlcNAc. The method in brief:
as §1

In test [17] the target is Neu5Gc(a2-3)Gal(b1-4)[Fuc(a1-3)]GlcNAc. The method in brief:
as §1

The target of test [18] is Neu5Gc(a2-6)Gal(b1-4)GlcNAc. The method in brief:
as §1

Test [19] has as its target Neu5Gc(a2-6)GalNAc. The gist of the method:
as §1

Test [20] has as its target Neu5Gc(a2-8)Neu5Ac(a2-3)Gal(b1-4)GlcNAc. The gist of the method: as §1
Test [21] has as its target Neu5Gc(a2-8)Neu5Gc(a2-3)Gal(b1-4)GlcNAc. The method in brief:
as §1

Test [22] concerns the target Neu5Gc(a2-8)Neu5Gc(a2-3)Gal(b1-4)GlcNAc(b1-3)Gal(b1-4)GlcNAc. The gist of the method:
as §1

In test [23] the target is Neu5Gc(a2-8)Neu5Gc(a2-6)Gal(b1-4)GlcNAc. The gist of the method: as §1
Test [24] has as its target Neu5Gc(b2-6)Gal(b1-4)GlcNAc. The method in brief: as §1

B1: PA-IL (Pseudomonas aeruginosa), Q05097 (protein)
chain: MAWKGEVLANNEAGQVTSIIYNPGDVITIVAAGWASYGPTQKWGPQGDREHPDQGLICHDAFCGALVMKIGNSGTIPVNTGLFRWVAPNNVQGAITLIYNDVPGTYGNNSGSFSVNIGKDQS
As for B1, the “glycan array binding signal (z-score)” value was -0.235 in [1]; -0.218 in [2]; -0.189 in test [3]; -0.19 in test [4]; -0.214 in [5]; -0.224 in test [6]. Moreover, the “glycan array binding signal (z-score)” value in test [7] was -0.237; in test [8] it was -0.224; in test [9], -0.233; in test [10] it was -0.205; in test [11] it was -0.222; in [12], -0.231. Moreover, the “glycan array binding signal (z-score)” value was -0.214 in [13]; -0.208 in test [14]; -0.236 in test [15]; -0.227 in test [16]; -0.228 in test [17]; -0.212 in test [18]. Moreover, the “glycan array binding signal (z-score)” value is -0.224 in test [19]; -0.245 in test [20]; -0.238 in [21]; -0.244 in [22]; -0.237 in test [23]; -0.226 in [24].
